Assay results as given in the supplement of paper PMC8728848.
The other results are listed elsewhere or left out.

What was measured:
Assay in all cases: glycan array binding signal (z-score within array); higher = stronger binding
Conditions in all cases: glycan notation: IUPAC condensed, linker removed
[1] = target: Man(a1-3)[Man(a1-6)]Man(a1-6)[Man(a1-2)Man(a1-3)]Man(b1-4)GlcNAc(b1-4)GlcNAc
Procedure, shortened: (§1)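 The binding signal is a Z-score computed within each array and averaged over linkers. Arrays of the same protein sequence at different concentrations or buffers were also averaged together. Data originate from 3228 arrays in the Consortium for Functional Glycomics database, kept only where the protein sequence was available.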

[2] = target: Man(a1-3)[Man(a1-6)]Man(a1-6)[Man(a1-3)]Man
Procedure, shortened: as §1

[3] = target: Man(a1-3)[Man(a1-6)]Man(a1-6)[Man(a1-3)]Man(b1-4)GlcNAc(b1-4)GlcNAc
Procedure, shortened: as §1

[4] = target: Man(a1-3)[Man(a1-6)]Man(b1-4)GlcNAc(b1-4)GlcNAc
Procedure, shortened: as §1

Man(a1-6)Man = target: Man(a1-6)Man
Procedure, shortened: as §1

Man(b1-4)GlcNAc = target: Man(b1-4)GlcNAc
Procedure, shortened: as §1

Neu5Ac(a2-3)Gal = target: Neu5Ac(a2-3)Gal
Procedure, shortened: as §1

[5] = target: Neu5Ac(a2-3)Gal(b1-3)GalNAc
Procedure, shortened: as §1

[6] = target: Neu5Ac(a2-3)Gal(b1-3)GalNAc(b1-3)Gal(a1-4)Gal(b1-4)Glc
Procedure, shortened: as §1

[7] = target: Neu5Ac(a2-3)Gal(b1-3)GalNAc(b1-3)Gal(b1-4)GlcNAc
Procedure, shortened: as §1

[8] = target: Neu5Ac(a2-3)Gal(b1-3)GalNAc(b1-4)[Neu5Ac(a2-3)]Gal(b1-4)Glc
Procedure, shortened: as §1

[9] = target: Neu5Ac(a2-3)Gal(b1-3)GalNAc6S
Procedure, shortened: as §1

[10] = target: Neu5Ac(a2-3)Gal(b1-3)GlcNAc
Procedure, shortened: as §1

[11] = target: Neu5Ac(a2-3)Gal(b1-3)GlcNAc(b1-3)Gal(b1-3)GlcNAc
Procedure, shortened: as §1

[12] = target: Neu5Ac(a2-3)Gal(b1-3)GlcNAc6S
Procedure, shortened: as §1

[13] = target: Neu5Ac(a2-3)Gal(b1-3)[Fuc(a1-4)]GlcNAc
Procedure, shortened: as §1

[14] = target: Neu5Ac(a2-3)Gal(b1-3)[Fuc(a1-4)]GlcNAc(b1-3)Gal(b1-4)[Fuc(a1-3)]GlcNAc
Procedure, shortened: as §1

[15] = target: Neu5Ac(a2-3)Gal(b1-3)[Neu5Ac(a2-3)Gal(b1-4)]GlcNAc
Procedure, shortened: as §1

[16] = target: Neu5Ac(a2-3)Gal(b1-3)[Neu5Ac(a2-6)]GalNAc
Procedure, shortened: as §1

Neu5Ac(a2-3)Gal(b1-4)Glc = target: Neu5Ac(a2-3)Gal(b1-4)Glc
Procedure, shortened: as §1

[17] = target: Neu5Ac(a2-3)Gal(b1-4)GlcNAc
Procedure, shortened: as §1

[18] = target: Neu5Ac(a2-3)Gal(b1-4)GlcNAc(b1-2)Man(a1-3)[GlcNAc(b1-2)Man(b1-4)GlcNAc(b1-2)Man(a1-6)]Man(b1-4)GlcNAc(b1-4)GlcNAc
Procedure, shortened: as §1

[19] = target: Neu5Ac(a2-3)Gal(b1-4)GlcNAc(b1-2)Man(a1-3)[Neu5Ac(a2-6)Gal(b1-4)GlcNAc(b1-2)Man(a1-6)]Man(b1-4)GlcNAc(b1-4)GlcNAc
Procedure, shortened: as §1

[20] = target: Neu5Ac(a2-3)Gal(b1-4)GlcNAc(b1-3)Gal(b1-3)GlcNAc
Procedure, shortened: as §1

[21] = target: Neu5Ac(a2-3)Gal(b1-4)GlcNAc(b1-3)Gal(b1-4)GlcNAc
Procedure, shortened: as §1

[22] = target: Neu5Ac(a2-3)Gal(b1-4)GlcNAc(b1-3)Gal(b1-4)GlcNAc(b1-3)Gal(b1-4)GlcNAc
Procedure, shortened: as §1

[23] = target: Neu5Ac(a2-3)Gal(b1-4)GlcNAc(b1-3)Gal(b1-4)[Fuc(a1-3)]GlcNAc
Procedure, shortened: as §1

[24] = target: Neu5Ac(a2-3)Gal(b1-4)GlcNAc(b1-6)[Gal(b1-3)]GalNAc
Procedure, shortened: as §1

[25] = target: Neu5Ac(a2-3)Gal(b1-4)GlcNAc(b1-6)[Neu5Ac(a2-3)Gal(b1-3)]GalNAc
Procedure, shortened: as §1

[26] = target: Neu5Ac(a2-3)Gal(b1-4)GlcNAc6S
Procedure, shortened: as §1

[27] = target: Neu5Ac(a2-3)Gal(b1-4)[Fuc(a1-3)]GlcNAc
Procedure, shortened: as §1

[28] = target: Neu5Ac(a2-3)Gal(b1-4)[Fuc(a1-3)]GlcNAc(b1-3)Gal
Procedure, shortened: as §1

[29] = target: Neu5Ac(a2-3)Gal(b1-4)[Fuc(a1-3)]GlcNAc(b1-3)Gal(b1-4)GlcNAc
Procedure, shortened: as §1

[30] = target: Neu5Ac(a2-3)Gal(b1-4)[Fuc(a1-3)]GlcNAc(b1-3)Gal(b1-4)[Fuc(a1-3)]GlcNAc(b1-3)Gal(b1-4)[Fuc(a1-3)]GlcNAc
Procedure, shortened: as §1

[31] = target: Neu5Ac(a2-3)Gal(b1-4)[Fuc(a1-3)]GlcNAc(b1-6)[Gal(b1-3)]GalNAc
Procedure, shortened: as §1

[32] = target: Neu5Ac(a2-3)Gal(b1-4)[Fuc(a1-3)]GlcNAc6S
Procedure, shortened: as §1

[33] = target: Neu5Ac(a2-3)Gal6S(b1-4)GlcNAc
Procedure, shortened: as §1

B1: Gal 8 (Homo sapiens), O00214 (protein)
chain: MMLSLNNLQNIIYNPVIPFVGTIPDQLDPGTLIVIRGHVPSDADRFQVDLQNGSSMKPRADVAFHFNPRFKRAGCIVCNTLINEKWGREEITYDTPFKREKSFEIVIMVKDKFQVAVNGKHTLLYGHRIGPEKIDTLGIYGKVNIHSIGFSFSSDLQSTQASSLELTEISRENVPKSGTPQLPSNRGGDISKIAPRTVYTKSKDSTVNHTLTCTKIPPMNYVSKRLPFAARLNTPMGPGRTVVVKGEVNANAKSFNVDLLAGKSKDIALHLNPRLNIKAFVRNSFLQESWGEEERNITSFPFSPGMYFEMIIYCDVREFKVAVNGVHSLEYKHRFKELSSIDTLEINGDIHLLEVRSW
[1]
  glycan array binding signal (z-score): -0.459
[2]
  glycan array binding signal (z-score): -0.434
[3]
  glycan array binding signal (z-score): -0.406
[4]
  glycan array binding signal (z-score): -0.453
Man(a1-6)Man
  glycan array binding signal (z-score): -0.398
Man(b1-4)GlcNAc
  glycan array binding signal (z-score): -0.448
Neu5Ac(a2-3)Gal
  glycan array binding signal (z-score): -0.432
[5]
  glycan array binding signal (z-score): 0.412
[6]
  glycan array binding signal (z-score): 0.576
[7]
  glycan array binding signal (z-score): 0.755
[8]
  glycan array binding signal (z-score): 0.395
[9]
  glycan array binding signal (z-score): 0.453
[10]
  glycan array binding signal (z-score): 0.355
[11]
  glycan array binding signal (z-score): 0.949
[12]
  glycan array binding signal (z-score): 0.307
[13]
  glycan array binding signal (z-score): -0.352
[14]
  glycan array binding signal (z-score): -0.382
[15]
  glycan array binding signal (z-score): -0.423
[16]
  glycan array binding signal (z-score): -0.374
Neu5Ac(a2-3)Gal(b1-4)Glc
  glycan array binding signal (z-score): 0.268
[17]
  glycan array binding signal (z-score): -0.178
[18]
  glycan array binding signal (z-score): 0.146
[19]
  glycan array binding signal (z-score): -0.429
[20]
  glycan array binding signal (z-score): 0.136
[21]
  glycan array binding signal (z-score): 0.109
[22]
  glycan array binding signal (z-score): 1.28
[23]
  glycan array binding signal (z-score): 0.629
[24]
  glycan array binding signal (z-score): 0.196
[25]
  glycan array binding signal (z-score): 0.32
[26]
  glycan array binding signal (z-score): 0.295
[27]
  glycan array binding signal (z-score): -0.426
[28]
  glycan array binding signal (z-score): -0.429
[29]
  glycan array binding signal (z-score): -0.392
[30]
  glycan array binding signal (z-score): -0.431
[31]
  glycan array binding signal (z-score): -0.41
[32]
  glycan array binding signal (z-score): -0.429
[33]
  glycan array binding signal (z-score): -0.415
